This note sets out measurements from article PMC10726135.

This is one part of the list. At the low end of the ranking the order means little. Measured with an extract: partners may take part in the binding.

The assay addresses T1, HNF4alpha8 (COS-7 nuclear extract) (UniProt P41235-5).
T1 sequence: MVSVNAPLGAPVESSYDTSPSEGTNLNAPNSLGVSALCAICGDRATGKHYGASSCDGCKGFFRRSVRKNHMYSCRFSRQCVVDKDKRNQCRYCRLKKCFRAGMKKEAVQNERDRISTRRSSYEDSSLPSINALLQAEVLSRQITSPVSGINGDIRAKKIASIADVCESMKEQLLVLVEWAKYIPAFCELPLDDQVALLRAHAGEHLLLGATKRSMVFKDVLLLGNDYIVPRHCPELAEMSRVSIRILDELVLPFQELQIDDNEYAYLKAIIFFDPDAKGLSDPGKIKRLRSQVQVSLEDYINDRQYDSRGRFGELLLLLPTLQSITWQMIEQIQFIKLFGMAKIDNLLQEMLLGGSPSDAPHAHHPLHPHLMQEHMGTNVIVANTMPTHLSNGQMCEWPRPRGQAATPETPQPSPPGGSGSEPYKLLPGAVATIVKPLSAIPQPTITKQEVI
Put plainly: protein-binding microarray. Particulars: COS-7 nuclear extract on double-stranded Agilent 4x180k PBM; binding buffer, salt, pH and temperature not given; high values mean tight binding; double strand, one strand shown; sequences stand for … in …GCCTAGGGAGATTAGAGTATCGGTCGA
For AAATTGTGATAACCCCTATGTCTTCAGACT, the binding signal (log2 normalized intensity) turned out to be 2.33.

As to TGTGTCTGTTTACCCACTTGGGGTTCTTGG, the binding signal (log2 normalized intensity) is 1.47. GGAAAATTACCAATGAGAAACCTCAAAGGT: the binding signal (log2 normalized intensity) is -1.29. As for CTTACGAAGATAAATCAGAAGAAAAAGGTA, the binding signal (log2 normalized intensity) was -1.21.

Consider GGAGATAAAGCAGAGGGCTGCTTGCAGGAG, for which the binding signal (log2 normalized intensity) is -1.33. The value for AATCTTATTTTTACTATGTGGCATTTAGAA was 1.29; that for AGCATAGAAGTAAGAAATCAGGAGCAAAGG was 0.165; that for GACATAACACAGGTGACCTTTGCTCCGGTT was 7.92. The value for ATGCTTCAAATATTTGGATAATGTGCCCTT was 3.92; that for CTTATCAGCCCCCATGTCAGGGAAGGTGCC was 2.56. As to GGTGCTGATGTTAACACAAGTTATTACCGT, the binding signal (log2 normalized intensity) worked out at 0.581. Take CTAACCCAAATGCAAATACCTATAGACCTG: the binding signal (log2 normalized intensity) is -1.33. Take TAAACATTCCCCTTTGTCTAAGCTAGTCAT: the binding signal (log2 normalized intensity) came out at 0.549. In the case of GACAGCCACACTTTAATGTGGAGTAGACTA, the binding signal (log2 normalized intensity) was -1.07. As for AGGTGACCTTTGCTCCGGTTCCCAATAAGT, the binding signal (log2 normalized intensity) is 5.71.

In the case of TATGCTGGCAGTAGGGAGGTTTGGGGTTAT, the binding signal (log2 normalized intensity) was found to be 1.06. As for ACCATTAGGGGGCAATTTCCCTGGTCGACC, the figure is 2.18; as for GTGACTTGATCTTTGACTGGATTCTCAGCC, 1.84. As for CTTCTCTTGTTTGTGTAACTGTGGGTTCTA, the figure is 2.53; as for ATAGGTCAGAGGACACCCGGGGTGGGCATT, 0.429; as for GCTTCAAAGGTCACTGTCCTAATTTTTTTT, 3.31. The value for AGGCAAGAGCTCAGAAGCCACCAGTGCAAA was -1.41. Take GAATTGTGATAATAAATGTGTTTCATCAGT: the binding signal (log2 normalized intensity) worked out at 1.5. ACTGAATCACACTACTGGCTTTTCTGGTTC: the binding signal (log2 normalized intensity) is -1.21. For GGTTGCACTCTGGTGCCCTCTGAGTGTTTG, the binding signal (log2 normalized intensity) was 2.54. The value for ATTGACTCTTCGTTTTCTTTTTAGTTTACA was 0.851; that for TCAGTGGGCTAAACATCAAGACAGGTGAGA was -1.11; that for CAGTGGAATCTACAGAATTCTCATGGAGGA was -1.02. With AATAATCTGGCATAGGAACAAAGGTTGGTG, the binding signal (log2 normalized intensity) came out at 2.9. As for CTGGTGATCTTTGTTAGACCCTTATCAGTA, the figure is 2.07. Regarding ACAGTTCTGATACATTGGACAACTGTACTT, the binding signal (log2 normalized intensity) came to 2.21. Turning to CATTTTTGACCTTCAGCATCTTCAACTGTG, the binding signal (log2 normalized intensity) was 3.46. As for GTTCAGCGCGTCTTAGCACTCACCCAATAA, the binding signal (log2 normalized intensity) is -0.955.

Take TTTCTGTCCAGAGTTTAAATGACCTCTGCC: the binding signal (log2 normalized intensity) is 4.72.

On to ATACACTTTCCGTACTTTTCATCTGATCAG, for which the binding signal (log2 normalized intensity) came to 1.41. ACACTCATCAGGTGAGATAAGAAGACTCCA: the binding signal (log2 normalized intensity) was -1.32. Turning to GGATAAGCATGGAGATGAGTGGGTTCACTT, the binding signal (log2 normalized intensity) came to 1.94. As for TGGGCCACCTGCCATCATTTTCTGACCAGG, the figure is -0.0408; as for GAGGCCATATCACAGGAGAAAACAGCACAA, -1.37. As for TTATCTTCAGGTTTGCTAATATCTGATGTT, the binding signal (log2 normalized intensity) came out at 0.362. Regarding CCAAGGCGTATGAAGCTTTGACCCTGTTTT, the binding signal (log2 normalized intensity) turned out to be 3.72. As for TGGTTCACACCCCACGTACATTGCACCCTC, the figure is 4.44. Regarding TCCATAATCCCCGAATGTCCAGACTGTGCA, the binding signal (log2 normalized intensity) was determined as 2.09.

TGGGCCTTCAGCTTGAAAACACAACAAAAG: the binding signal (log2 normalized intensity) is -1.35.

With GGTACAGCAGCATAAAGGACTTTCAACCCT, the binding signal (log2 normalized intensity) was determined as 4.97. As to GATCTTTGACCGCTGCCTCCCACCCCCACG, the binding signal (log2 normalized intensity) was determined as 5.6. As for GTCCTCACCCAGAACTTTGACCGTTTGATT, the figure is 4.1; as for TGTTAGCAGAGCAATTACTCATGTCCTCAG, -1.15. As for AGGATTATAGTTTATCTACCTTTGTACCTT, the figure is 6.1. The value for TTTAGCAGCACCATCCTACAGGGTATGAAT was -1.32. In the case of TATTTTATAGAAAAGGAAAGTGAGGCCTGG, the binding signal (log2 normalized intensity) is 0.0311. As for GGGAGGAGGGGGGAGGGTCGGCAACGGTGA, the figure is -1.37; as for TGGTTTTATCAGCTGAGGCCATTGCCTTTC, 0.965. As for TTTGTACACACAGCACTGCAAACAGTGAGC, the figure is -1.13; as for GTCAAACCTTTGACCCTTTATAATCCCCTA, 4.71.

Turning to TTACTGAACGCTGCGCATACCATATGCATT, the binding signal (log2 normalized intensity) is -1.35. The value for GTGCCTGTGCATACCTGGAATTGTACACAT was 0.533.

GGGCGAAAAAGACGCGGTCTCAGTTAACGG: the binding signal (log2 normalized intensity) was -1.32.

Take GAAAGAGACCTTTGACATCACCTAACTTGT: the binding signal (log2 normalized intensity) is 2.67.

As for ATCTTATCAGCAAGGGCATTTGCGTAGGCT, the binding signal (log2 normalized intensity) is -0.794.

Take GAGTCCACCACTGACCTTAGACCCTCAGGC: the binding signal (log2 normalized intensity) stood at 5.03. In the case of GCTCCTAGCCCTGCAGTGTATGACACAGCC, the binding signal (log2 normalized intensity) is -1.23. On to GGAAAAAGGGAGATAGGTTAAAATTTATCT, for which the binding signal (log2 normalized intensity) was -1.02. As for TAGTATGTGCTAGGCATTTTATAGTATTTC, the figure is 0.52; as for GAGGAGTCAAAAGGTGTATGTGGACTTTCA, 5.3. Turning to CAGTTACAAACAAAACAAACTAAACACAGT, the binding signal (log2 normalized intensity) was -1.43.

Take TCTCTTCCCAACAGGAGATTACTTCAAGGC: the binding signal (log2 normalized intensity) is -1.31. As for GCTTGTTCTCTCCCCCAACCCCACCTTCAT, the figure is 4.61.

In the case of AACTGGCTTTAAGAGGAATGCTTTGAGCCA, the binding signal (log2 normalized intensity) was -1.37. As for ATTGGAGAGCATCTTGGACTTGGGACTCTG, the figure is 6.7; as for AGCCTGTTCCGACCTTAGTACTCTGCCATG, 3.39; as for AAAAAATTACTGACCCTTGCACTGTAAGAT, 4.14.
